Test results taken from the supplement of paper PMC7826260.
This is one part of the list. Viral Rep nickase domains cut single-stranded DNA in vitro (3 µM enzyme, 1 h, 37 °C); shown is the middle of each 90-letter strand. Numbers give uncut DNA relative to the enzyme-free pool, as log2; more negative means more cut, near 0 not cut, and no call is made. Because reads are shares of a total, they shift together; values above 0 arise when much of the pool is cut.

What was measured:
Experiment in all cases: uncleaved DNA left, log2 of reads against the no-enzyme library (log2 ratio); higher = less cleavage (more negative = more Rep cleavage of the k-mer); sequences stand for … in CTCGTCCG…ACCGGAGA
[1] = system: T1, Rep nickase domain of Muscovy duck circovirus
T1 sequence (protein, residues 1-111, tag omitted): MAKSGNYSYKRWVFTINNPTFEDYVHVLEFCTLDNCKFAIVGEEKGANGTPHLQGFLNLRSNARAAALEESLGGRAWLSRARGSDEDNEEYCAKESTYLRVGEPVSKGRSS
Procedure: (§1)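 A pool of 90-nt single-stranded DNAs with seven random bases just before the constant AC of the nick site (name = the seven bases) was cut by 3 µM recombinant His6-SUMO-tagged Rep nickase domain (300 nM DNA, 50 mM HEPES pH 8.0, 50 mM NaCl, 1 mM MnCl2, 1 h, 37 °C, three replicates). Uncut DNA was amplified and sequenced.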

[2] = system: T2, Rep nickase domain of banana bunchy top virus
T2 sequence (protein, residues 1-94, tag omitted): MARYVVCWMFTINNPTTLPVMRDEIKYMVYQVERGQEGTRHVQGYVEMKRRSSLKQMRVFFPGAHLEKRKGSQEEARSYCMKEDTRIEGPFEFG
Procedure: as §1

[3] = system: T3, Rep nickase domain of cabbage leaf curl virus
T3 sequence (protein, residues 1-116, tag omitted): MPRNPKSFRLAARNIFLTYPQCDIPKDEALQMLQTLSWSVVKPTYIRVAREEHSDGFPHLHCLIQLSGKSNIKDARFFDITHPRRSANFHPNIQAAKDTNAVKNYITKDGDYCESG
Procedure: as §1

[4] = system: T4, Rep nickase domain of chickpea chlorotic dwarf virus
T4 sequence (protein, residues 1-124, tag omitted): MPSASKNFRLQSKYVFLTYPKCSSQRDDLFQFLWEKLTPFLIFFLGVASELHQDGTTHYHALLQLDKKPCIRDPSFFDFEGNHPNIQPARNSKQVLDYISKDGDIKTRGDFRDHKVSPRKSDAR
Procedure: as §1

[5] = system: T5, Rep nickase domain of faba bean necrotic yellows virus
T5 sequence (protein, residues 1-98, tag omitted): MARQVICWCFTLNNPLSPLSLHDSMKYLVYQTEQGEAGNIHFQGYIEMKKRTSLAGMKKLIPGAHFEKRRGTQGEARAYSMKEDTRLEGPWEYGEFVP
Procedure: as §1

[6] = system: T6, Rep nickase domain of maize striate mosaic virus
T6 sequence (protein, residues 1-117, tag omitted): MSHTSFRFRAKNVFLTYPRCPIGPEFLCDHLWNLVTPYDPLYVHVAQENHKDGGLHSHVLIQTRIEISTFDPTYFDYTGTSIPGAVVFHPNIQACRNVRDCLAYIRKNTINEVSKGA
Procedure: as §1

[7] = system: T7, Rep nickase domain of porcine circovirus 2
T7 sequence (protein, residues 2-116, tag omitted): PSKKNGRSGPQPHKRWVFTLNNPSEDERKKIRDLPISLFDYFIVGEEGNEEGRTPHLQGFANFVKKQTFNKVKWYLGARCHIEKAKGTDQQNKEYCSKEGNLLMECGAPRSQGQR
Procedure: as §1

[8] = system: T8, Rep nickase domain of tomato yellow leaf curl virus
T8 sequence (protein, residues 1-136, tag omitted): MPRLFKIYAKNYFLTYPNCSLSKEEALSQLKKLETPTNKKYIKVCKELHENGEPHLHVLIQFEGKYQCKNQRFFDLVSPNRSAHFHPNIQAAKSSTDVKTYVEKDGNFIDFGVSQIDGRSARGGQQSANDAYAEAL
Procedure: as §1

[9] = system: T9, Rep nickase domain of wheat dwarf virus
T9 sequence (protein, residues 1-137, tag omitted): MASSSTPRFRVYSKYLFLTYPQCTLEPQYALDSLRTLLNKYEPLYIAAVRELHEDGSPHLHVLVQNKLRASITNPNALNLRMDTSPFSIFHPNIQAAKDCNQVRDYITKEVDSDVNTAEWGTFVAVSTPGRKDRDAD
Procedure: as §1

Row | Sequence | uncleaved DNA left (log2) [1] | uncleaved DNA left (log2) [2] | uncleaved DNA left (log2) [3] | uncleaved DNA left (log2) [4] | uncleaved DNA left (log2) [5] | uncleaved DNA left (log2) [6] | uncleaved DNA left (log2) [7] | uncleaved DNA left (log2) [8] | uncleaved DNA left (log2) [9]
1 | ACTCTAT | -0.00332 | -0.0732 | -0.287 | -0.843 | -0.0177 | -0.596 | -0.0951 | -0.05 | -0.0622
2 | TTGTGCT | -1.4 | -0.402 | -0.82 | -1.75 | -0.479 | -1.24 | -3.27 | -0.109 | -0.344
3 | TTGAGAA | -0.0034 | -0.112 | -0.00947 | 0.0112 | 0.00104 | -0.681 | -0.261 | -0.0281 | -0.0264
4 | ATATTCT | -3.15 | -0.178 | -1.17 | -2.84 | -0.0244 | -1.15 | -3.22 | -0.0987 | -0.249
5 | ACTTGAA | -0.0852 | -0.0254 | -0.299 | -0.287 | -0.193 | -1.03 | -0.0507 | -0.0625 | -0.0137
6 | GCAAGAC | 0.0218 | 0.0634 | 0.305 | 0.809 | -0.0407 | 0.329 | 0.175 | 0.0594 | 0.0806
7 | TTCGCGC | 0.0164 | -0.0101 | -0.817 | -0.203 | 0.105 | -0.942 | 0.111 | 0.0326 | -0.212
8 | CAGTCAA | -0.116 | -0.0488 | -0.0559 | -0.399 | -0.127 | -0.491 | -2.61 | 0.0544 | 0.0359
9 | ACATTTA | 0.000434 | -0.093 | -0.256 | -1.66 | -0.0159 | -0.704 | -0.0305 | -0.226 | -0.075
10 | AGATATG | 0.0869 | -0.014 | -0.166 | 0.0627 | 0.0579 | -0.251 | 0.04 | -0.106 | 0.0813
11 | AGCAGCT | 0.00701 | 0.0898 | -0.0521 | 0.0927 | -0.04 | 0.262 | 0.00404 | -0.0591 | -0.00959
12 | TGAAGTT | 0.0333 | 0.0346 | -0.251 | -2.16 | 0.0823 | -0.385 | -0.321 | 0.0855 | -0.109
13 | ATACTCT | -0.0138 | -0.167 | -0.334 | -2.61 | -0.103 | -0.835 | -0.36 | 0.0016 | -0.164
14 | TTTCCTG | 0.0315 | -0.115 | -0.128 | -0.588 | -0.0281 | -0.184 | -0.0899 | -0.0625 | 0.0322
15 | ACACCAT | -0.0397 | -0.118 | -0.142 | -0.777 | -0.11 | -0.461 | -0.0132 | -0.0946 | -0.0108
16 | TTCCCAA | 0.187 | 0.172 | 0.313 | 0.347 | 0.065 | 0.315 | 8.65e-05 | 0.185 | 0.287
17 | TCTTTCC | 0.00227 | -0.0718 | 0.114 | -0.282 | -0.104 | -0.354 | 0.022 | -0.0343 | -0.0658
18 | CAAGAAT | 0.103 | -0.107 | -0.0016 | -0.493 | 0.0372 | 0.776 | 0.0386 | -0.0714 | -0.0642
19 | ACCGATT | -0.215 | -0.0651 | -0.326 | -1.75 | 0.0387 | -0.827 | -0.0508 | -0.139 | -0.131
20 | CAGCAGA | 0.0645 | -0.0346 | -0.294 | -0.517 | 0.0629 | -1.06 | -0.0751 | -0.00916 | -0.0515

Row | Sequence | uncleaved DNA left (log2) [1] | uncleaved DNA left (log2) [2] | uncleaved DNA left (log2) [3] | uncleaved DNA left (log2) [4] | uncleaved DNA left (log2) [5] | uncleaved DNA left (log2) [6] | uncleaved DNA left (log2) [7] | uncleaved DNA left (log2) [8] | uncleaved DNA left (log2) [9]
21 | GCAGGAG | 0.0408 | 0.0377 | -0.252 | 0.00898 | -0.144 | -0.661 | 0.145 | 0.0723 | 0.0436
22 | TGTACAG | 0.122 | 0.145 | -0.393 | -0.867 | 0.0321 | -0.622 | 0.211 | 0.169 | 0.121
23 | GGGTTTA | -0.043 | 0.0562 | 0.739 | 1.51 | -0.0953 | 2.05 | 0.0908 | 0.0539 | 0.13
24 | CTTAAGC | -0.00925 | 0.0553 | 0.0247 | -0.16 | 0.0056 | -0.996 | 0.232 | 0.0969 | 0.179
25 | ACATCGG | -0.104 | -0.0372 | -0.471 | -0.146 | -0.0547 | -0.614 | 0.163 | 0.00592 | -0.142
26 | TACCGTG | -0.186 | -0.275 | -0.853 | -1.32 | -0.106 | -1.25 | -0.419 | -0.186 | -0.295
27 | GGTTATC | 0.199 | 0.271 | 0.577 | 1.21 | 0.163 | 1.87 | 0.124 | 0.225 | 0.323
28 | GTACTTC | -0.0427 | -0.00125 | 0.412 | 0.841 | 0.0426 | 1.59 | 0.0654 | 0.0901 | 0.133
29 | TATGGAT | 0.0729 | 0.0604 | 0.307 | 1.57 | 0.0856 | 1.9 | 0.105 | -0.149 | 0.0738
30 | GATCAGC | 0.109 | 0.124 | 0.221 | 0.562 | 0.111 | -0.0616 | 0.202 | 0.124 | 0.236
31 | ATTCATC | 0.0805 | 0.111 | 0.0888 | 0.0125 | -0.0458 | -0.491 | 0.0568 | 0.0393 | 0.0801
32 | CCCATGC | -0.0955 | -0.0562 | -0.745 | -0.725 | -0.246 | -1.12 | 0.0776 | 0.00469 | -0.251
33 | ACATTTT | -3.34 | -0.082 | -0.644 | -2.77 | -0.0262 | -0.972 | -3.41 | -0.161 | -0.113
34 | CCTATGA | 0.00306 | -0.096 | -0.0885 | 0.0658 | -0.00469 | -0.895 | 0.0145 | -0.097 | -0.117
35 | GAGCGCT | 0.0101 | 0.0303 | 0.0436 | 0.373 | 0.00149 | 1.2 | -0.239 | -0.037 | 0.0195
36 | GCTTCAC | -0.0336 | 0.143 | 0.219 | 0.572 | -0.00866 | 0.234 | 0.179 | 0.084 | 0.113
37 | CAGTCAG | 0.0469 | 0.0346 | -0.793 | -0.41 | -0.0301 | -1.07 | -0.197 | 0.0928 | -0.152
38 | GCCCGTT | 0.0801 | 0.0855 | 0.316 | 0.0051 | 0.17 | 0.438 | 0.164 | 0.0998 | -0.0656
39 | GGTTCGA | 0.114 | -0.0237 | 0.34 | 0.761 | -0.00683 | 0.911 | 0.0456 | 0.00546 | 0.107
40 | CAAACAA | -0.0255 | 0.129 | -0.0489 | -0.93 | 0.0433 | -0.673 | 0.0828 | 0.0257 | 0.0222
